Measurements as given in the supplement of paper PMC3334620.
The full ranking holds about 33,000 sequences; the median of “E-score (-0.5 to 0.5)” is about -0.043, and the highest 2% start at about 0.37. The list shows a part of the results.

molecular target: T1, Upc2 (UniProt Q12151); experiment: PBM E-score (8-mer binding enrichment) (E-score (-0.5 to 0.5)); higher = stronger / more preferred TF binding; most listed sequences are background and not binding sites; settings: protein concentration: 200 nM; construct: GST-full length
T1 sequence: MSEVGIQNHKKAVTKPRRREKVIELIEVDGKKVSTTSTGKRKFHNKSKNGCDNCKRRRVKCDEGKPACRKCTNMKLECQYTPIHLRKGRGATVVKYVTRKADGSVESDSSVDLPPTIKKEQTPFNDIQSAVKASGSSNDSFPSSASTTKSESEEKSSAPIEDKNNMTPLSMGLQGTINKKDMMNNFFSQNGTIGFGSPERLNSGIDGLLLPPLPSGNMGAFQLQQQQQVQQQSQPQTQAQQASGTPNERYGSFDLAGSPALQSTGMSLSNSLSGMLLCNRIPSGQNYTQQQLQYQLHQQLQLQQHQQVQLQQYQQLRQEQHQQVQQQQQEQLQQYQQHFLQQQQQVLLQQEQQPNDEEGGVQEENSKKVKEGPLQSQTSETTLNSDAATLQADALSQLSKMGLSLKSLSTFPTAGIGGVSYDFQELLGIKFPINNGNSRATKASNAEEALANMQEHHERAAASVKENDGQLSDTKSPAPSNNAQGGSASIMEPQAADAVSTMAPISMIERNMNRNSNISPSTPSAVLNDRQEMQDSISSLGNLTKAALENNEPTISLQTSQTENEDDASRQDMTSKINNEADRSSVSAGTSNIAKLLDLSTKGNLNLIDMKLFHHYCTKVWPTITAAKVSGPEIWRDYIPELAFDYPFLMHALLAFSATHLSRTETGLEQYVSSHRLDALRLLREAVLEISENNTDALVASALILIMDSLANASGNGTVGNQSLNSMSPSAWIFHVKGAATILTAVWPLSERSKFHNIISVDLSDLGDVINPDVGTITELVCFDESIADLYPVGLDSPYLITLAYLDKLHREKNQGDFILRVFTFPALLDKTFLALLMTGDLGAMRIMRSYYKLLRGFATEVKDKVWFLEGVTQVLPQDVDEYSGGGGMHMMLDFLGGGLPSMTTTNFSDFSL
Outline: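 Full-length yeast transcription factors or their DNA-binding domains, GST-tagged and expressed with PURExpress, were applied at about 100-200 nM to universal all-10-mer Agilent arrays. These arrays had been made double-stranded by primer extension on fresh or once-stripped slides. Detection used fluorescent anti-GST, normalisation used masliner, and E-scores for ungapped eight-base words pooled with reverse complements came from the Universal PBM Analysis Suite.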

Sequence	PBM E-score
GGTTGATA	-0.0899
CGCGCTTA	0.16
CATTTACA	-0.155
CTAGTTTA	-0.0635
AGGACGAG	-0.265
ACTCATAT	-0.0667
AAAGTGGA	-0.277
CGTGTTAG	0.123
GCATGTTA	0.0537
GAAAGGTC	-0.0457
ACTTGACG	-0.0403
ACCCTCTG	-0.236
CTTTGCGA	0.146
AAGGCCTA	-0.32
ACGATGCC	0.238
ATCAACAA	0.135
CTAAAGCC	-0.244
ATAAGTTG	-0.0732
ACGACGTA	0.413
ATACGGTG	0.408
AACTACCT	-0.152
CCGGTAAC	0.0801
GCGCAACA	-0.19
ATGAAATG	-0.185
GGCTGAAC	0.0193

Sequence	PBM E-score
GCGTCTTA	-0.0268
CCGACACC	0.0358
AGGAAGTG	-0.0944
GTACGTGA	0.327
AGTTCATC	-0.246
AAGGATGT	-0.186
GGCGGGTA	-0.00895
CACCGTTA	0.199
AGGCTAAA	-0.0397
CCGGCAAG	-0.0372
GTCTATGA	-0.0543
AAATATTG	0.0554
AATGATTA	-0.0182
AAGGATCC	-0.0448
GGCGACAC	-0.0467
CGTCTCGA	0.0222
GACATTCC	-0.0735
AGGCGCTA	-0.056
CCGCCCAC	0.00393
CACTCATG	-0.147
CTTGCACC	0.0237
ACGCACAG	-0.0832
CAAAACAA	-0.318
GGGTGACC	-0.141
CCTGGGAG	-0.287

Sequence	PBM E-score
AAGGGCTA	-0.0638
CGAGGATC	0.175
CGAACAGA	0.171
ACCGACAT	0.199
GTCGCGAA	0.181
ACCAAACC	-0.0475
TATCCGAA	0.262
CCGGGTTC	0.116
GAGAGCCA	-0.0367
CCAGGCTC	-0.129
GCCAGGTA	0.0753
AAGATCAC	-0.0374
AACGTTAC	0.134
AACTATAC	0.323
GCGATGCA	-0.105
GAAGATCA	0.237
ATTGGATG	0.03
AGGTCTTC	-0.234
GATCTTTA	0.101
GACCACCA	-0.247
AATGGAGT	-0.266
ACCTAGCT	-0.187
ATGTCCTG	-0.138
AAAATCAT	0.0215
TCAGACAA	-0.17

Sequence	PBM E-score
CAGATAAA	-0.0555
GGGCGATA	-0.131
GTGCCCCA	-0.206
AATTTCTA	0.0252
AAACCCGG	-0.0476
ATTCTGGA	-0.0119
CGAGGAAC	0.304
AGAAATGC	0.0091
ACTATTAA	0.0336
AAGCAGCA	-0.0232
ATTAGTCA	-0.0731
AATATCGG	0.124
GTTGCCAA	0.0503
CGGTCTGA	-0.129
AATCGCAG	-0.0857
CGTGTACC	0.116
CACATACG	0.401
CAGTTGGC	-0.216
ACGCGATA	0.198
GGCCATTA	-0.219
GACGTTAA	0.154
TCAACTAA	-0.0513
ACGATAGG	0.213
AGAGTAAC	-0.0308
GTCTGGCA	-0.266

Sequence	PBM E-score
AACTTAGG	-0.188
GAGACGAC	0.00414
CAAATTAC	0.0461
CTTAGGAA	-0.0438
TGTTCAAA	-0.0111
AGGTGTCA	-0.138
GGGTGCGA	0.112
CCATACAA	-0.09
AAAAATCA	-0.0828
GTTCAGGA	0.266
CCGAAAAA	0.0605
CACTTTCC	-0.336
ACCCGAAG	-0.04
GCGTTAGC	-0.115
AACAATCA	-0.0313
ATGAATTC	-0.0133
AAACCCAA	-0.144
CAATCACA	0.049
ATCATAGG	-0.149
TGTGTAAA	0.0616
ACCGTAGT	0.114
GGCCTACA	-0.138
CCGTACAG	0.418
AAAATCGC	0.0632
CGGGGAAC	0.028

Sequence	PBM E-score
CCAAACTC	0.024
AACGCTCG	0.23
GATGGGGC	-0.237
ACCCGCGC	-0.022
CGACCTAC	0.0511
ATACCGTA	0.282
GGGTCTAA	-0.293
GTCGGGTA	0.16
CTTAGATA	-0.0328
ATGGCCAT	-0.285
AATCGCCT	0.0288
CTGTTCGC	0.112
GTTACTAA	0.0742
GCCCACCC	0.00994
CTGGGGTA	-0.194
ACGGGAAT	0.219
CTATTGTC	-0.237
ACCAAGTA	0.0592
TCCTCTCA	-0.23
GATGGAAA	-0.15
GTTGTGAA	0.00742
CCGGATAA	0.0395
GGGTTCAA	-0.157
ATTTTTCG	0.0906
CTCTCCCA	-0.28

Sequence	PBM E-score
GTTGGAGA	-0.0488
ACGGCAGG	-0.0437
ATTTACTA	0.0955
GTATATGA	0.212
ATCTATAA	0.21
AAAGCATA	0.0898
GGGCTCCA	-0.29
CATATTCC	-0.1
CAGGTACA	-0.226
CCACCCAG	-0.167
AACTACAC	0.00334
CCGCCAAA	0.0518
TACACAAA	0.184
GCTCTTAA	0.108
GGGGTAGA	-0.138
CCTGTGAA	0.0145
GTATGGAA	0.0901
GATAGTCA	0.0712
AATAGCTA	0.0695
GCGGATAA	-0.0351
AACTCAGT	-0.192
GACCAAAA	0.193
